In the supplement of paper PMC4967469:
IC50 is the fitted dose that halves viability relative to control wells, and lower means more sensitive; where the fit passes the top or lowest dose, that dose stands as a limit. AUC, from the same fit, is the share of area under the viability curve across the 256-fold dose range: 1 means no effect, lower means more sensitive. The top dose, if marked as inferred, was calculated from the reported fits.

Tests used:
Assay in all cases: Viability of human cancer cell lines after 72 h of drug (GDSC screen)
Lenalidomide = compound: Nc1cccc2c1CN(C1CCC(=O)NC1=O)C2=O [Lenalidomide]; settings: top dose 5 µM; top dose inferred
Description: (§1)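 Human cancer cell lines in 384-well plates, medium with 10% serum, drug for 72 h over a 256-fold dose range (nine 2-fold or five 4-fold steps up to the top dose). Adherent lines were fixed and stained with the nucleic acid dye Syto60, suspension lines read with resazurin; signal relative to control wells, capped at 0 and 100%. One two-parameter sigmoid per drug and line, fitted in a mixed model over all curves with the slope shared within a line.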

Bryostatin 1 = compound: CCC/C=C/C=C/C(=O)O[C@H]1/C(=C/C(=O)OC)C[C@H]2C[C@H]([C@@H](C)O)OC(=O)C[C@H](O)C[C@@H]3C[C@H](OC(C)=O)C(C)(C)[C@](O)(C[C@@H]4C/C(=C/C(=O)OC)C[C@H](/C=C/C(C)(C)[C@]1(O)O2)O4)O3 [Bryostatin 1]; settings: top dose 0.008 µM; top dose inferred
Description: as §1

GW-2580 = compound: COc1ccc(COc2ccc(Cc3cnc(N)nc3N)cc2OC)cc1 [GW-2580]; settings: top dose 20 µM; top dose inferred
Description: as §1

SGC0946 = compound: CC(C)N(CCCNC(=O)Nc1ccc(C(C)(C)C)cc1)C[C@H]1O[C@@H](n2cc(Br)c3c(N)ncnc32)[C@H](O)[C@@H]1O [SGC0946]; settings: top dose 0.5 µM; top dose inferred
Description: as §1

Row | Cell Line | AUC (Lenalidomide) | IC50 (Lenalidomide) [µM] | AUC (Bryostatin 1) | IC50 (Bryostatin 1) [µM] | AUC (GW-2580) | IC50 (GW-2580) [µM] | AUC (SGC0946) | IC50 (SGC0946) [µM]
1 | C-4-I (cervix, adherent) | 0.986 | > 5 | 0.983 | > 0.008 | 0.983 | > 20 |  | 
2 | CAPAN-1 (pancreas, adherent) | 0.986 | > 5 | 0.984 | > 0.008 | 0.986 | > 20 |  | 
3 | DAN-G (pancreas, adherent) | 0.988 | > 5 | 0.979 | > 0.008 | 0.989 | > 20 |  | 
4 | DMS-273 (small cell lung carcinoma, adherent) | 0.985 | > 5 | 0.944 | > 0.008 | 0.951 | > 20 |  | 
5 | DOHH-2 (B-cell lymphoma, suspension) | 0.98 | > 5 | 0.944 | > 0.008 |  |  |  | 
6 | EHEB (lymphoid neoplasm, suspension) | 0.977 | > 5 | 0.978 | > 0.008 |  |  | 0.966 | > 0.5
7 | FADU (head and neck, adherent) | 0.988 | > 5 | 0.952 | > 0.008 | 0.987 | > 20 |  | 
8 | GMS-10 (glioma, adherent) | 0.988 | > 5 | 0.987 | > 0.008 | 0.987 | > 20 |  | 
9 | HCC202 (breast, adherent) | 0.981 | > 5 | 0.942 | > 0.008 |  |  | 0.933 | > 0.5
10 | HCC2998 (large intestine, adherent) | 0.963 | > 5 | 0.988 | > 0.008 | 0.988 | > 20 |  | 
11 | HT55 (large intestine, adherent) | 0.99 | > 5 | 0.842 | 0.00556 | 0.99 | > 20 |  | 
12 | HuP-T4 (pancreas, adherent) | 0.982 | > 5 | 0.969 | > 0.008 | 0.981 | > 20 |  | 
13 | IGR-1 (melanoma, adherent) | 0.99 | > 5 | 0.942 | > 0.008 | 0.99 | > 20 |  | 
14 | IM-9 (myeloma, suspension) | 0.992 | > 5 | 0.99 | > 0.008 |  |  | 0.988 | > 0.5
15 | JHU-011 (head and neck, adherent) | 0.966 | > 5 | 0.983 | > 0.008 | 0.986 | > 20 |  | 
16 | JHU-029 (head and neck, adherent) | 0.969 | > 5 | 0.928 | > 0.008 |  |  | 0.977 | > 0.5
17 | KMRC-1 (kidney, adherent) | 0.983 | > 5 | 0.983 | > 0.008 | 0.978 | > 20 |  | 
18 | KP-1N (pancreas, adherent) | 0.961 | > 5 | 0.971 | > 0.008 |  |  | 0.97 | > 0.5
19 | KYSE-410 (oesophagus, adherent) | 0.958 | > 5 | 0.972 | > 0.008 | 0.985 | > 20 |  | 
20 | MG-63 (osteosarcoma, adherent) | 0.983 | > 5 | 0.978 | > 0.008 | 0.976 | > 20 |  | 

Row | Cell Line | AUC (Lenalidomide) | IC50 (Lenalidomide) [µM] | AUC (Bryostatin 1) | IC50 (Bryostatin 1) [µM] | AUC (GW-2580) | IC50 (GW-2580) [µM] | AUC (SGC0946) | IC50 (SGC0946) [µM]
21 | MHH-NB-11 (neuroblastoma, adherent) | 0.955 | > 5 | 0.985 | > 0.008 | 0.985 | > 20 |  | 
22 | MKN28 (stomach, adherent) | 0.981 | > 5 | 0.987 | > 0.008 | 0.987 | > 20 |  | 
23 | MSTO-211H (mesothelioma, adherent) | 0.924 | > 5 | 0.99 | > 0.008 | 0.988 | > 20 |  | 
24 | NB69 (neuroblastoma, adherent) | 0.972 | > 5 | 0.988 | > 0.008 | 0.989 | > 20 |  | 
25 | NCI-H64 (small cell lung carcinoma, suspension) | 0.995 | > 5 | 0.996 | > 0.008 | 0.993 | > 20 |  | 
26 | NCI-H1734 (lung adenocarcinoma, adherent) | 0.984 | > 5 | 0.976 | > 0.008 | 0.985 | > 20 |  | 
27 | NCI-H2052 (mesothelioma, adherent) | 0.982 | > 5 | 0.98 | > 0.008 | 0.982 | > 20 |  | 
28 | NH-12 (neuroblastoma, adherent) | 0.984 | > 5 | 0.983 | > 0.008 | 0.98 | > 20 |  | 
29 | PA-1 (ovary, adherent) | 0.991 | > 5 | 0.993 | > 0.008 | 0.987 | > 20 |  | 
30 | PANC-04-03 (pancreas, adherent) | 0.96 | > 5 | 0.952 | > 0.008 | 0.963 | > 20 |  | 
31 | PFSK-1 (medulloblastoma, adherent) | 0.976 | > 5 | 0.986 | > 0.008 | 0.985 | > 20 |  | 
32 | RPMI-7951 (melanoma, adherent) | 0.987 | > 5 | 0.908 | > 0.008 | 0.984 | > 20 |  | 
33 | SCC90 (head and neck, adherent) | 0.98 | > 5 | 0.953 | > 0.008 |  |  | 0.974 | > 0.5
34 | SNU-C5 (large intestine, adherent) | 0.984 | > 5 |  |  | 0.973 | > 20 | 0.983 | > 0.5
35 | STS-0421 (soft tissue, adherent) | 0.983 | > 5 | 0.942 | > 0.008 |  |  | 0.98 | > 0.5
36 | TE-4 (oesophagus, adherent) | 0.987 | > 5 |  |  | 0.977 | > 20 | 0.986 | > 0.5
37 | UWB1.289 (ovary, adherent) | 0.98 | > 5 |  |  | 0.966 | > 20 | 0.973 | > 0.5
38 | VMRC-RCW (kidney, adherent) | 0.981 | > 5 | 0.979 | > 0.008 | 0.981 | > 20 |  | 
39 | YH-13 (glioma, adherent) | 0.964 | > 5 |  |  | 0.986 | > 20 | 0.985 | > 0.5
